# In the BET-seq Pho4 binding data (Le et al. 2018):
# This is one part of the list. Values were computed here from the reads of four pooled replicates and scatter widely.
# Molecular target: T1, Pho4 (S. cerevisiae) (UniProt P07270)
# T1 sequence: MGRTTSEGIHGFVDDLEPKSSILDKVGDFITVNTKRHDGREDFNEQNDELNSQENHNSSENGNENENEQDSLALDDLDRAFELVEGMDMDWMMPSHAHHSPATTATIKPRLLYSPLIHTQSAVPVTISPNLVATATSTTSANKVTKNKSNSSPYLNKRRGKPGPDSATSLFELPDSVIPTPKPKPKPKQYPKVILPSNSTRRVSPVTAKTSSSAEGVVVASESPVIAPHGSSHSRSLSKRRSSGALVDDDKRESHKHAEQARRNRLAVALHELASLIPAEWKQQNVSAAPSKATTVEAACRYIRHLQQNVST
# Assay: relative binding free energy (BET-seq); higher = weaker binding
# Conditions: reference: library average
row,Sequence,relative binding free energy [kcal/mol]
1,GTATGCACGTGGCATC,0.15
2,AAGATCACGTGTTGTT,0.11
3,AGCTTCACGTGCTGGT,0.16
4,TAGGTCACGTGGCGTT,0
5,AGTTACACGTGTCGTT,0.14
6,TTGGACACGTGCGAGG,-0.12
7,GTGGACACGTGATGCT,0.08
8,CGGGGCACGTGAGGAG,0.17
9,TGTGTCACGTGGCCTG,-0.11
10,TTACACACGTGATGGG,0
11,AGAGACACGTGGTCGT,-0.03
12,GGCTGCACGTGGTATT,0.02
13,ACTTGCACGTGATGTT,0.2
14,GGTCTCACGTGTGGTG,0.32
15,GATTCCACGTGTTAGG,0.16
16,TATTTCACGTGTGTGC,0.26
17,TGGATCACGTGACGGT,0.24
18,AACTTCACGTGCGGGG,0.27
19,GAGGTCACGTGTGTCG,0.19
20,AGTGGCACGTGGTAGC,-0.24
21,TCTTTCACGTGGGTGC,0.11
22,GGGGGCACGTGATTGG,0.12
23,GGGGGCACGTGGGGTA,-0.16
24,TTCAACACGTGTGTTA,0.01
25,GTGTGCACGTGTGTCC,0.11
26,TTATGCACGTGAGAGT,0.09

row,Sequence,relative binding free energy [kcal/mol]
1,GTGTGCACGTGTGGCC,0.07
2,AGTGGCACGTGACTGG,0.05
3,TGGAGCACGTGGAAAG,0.09
4,TGGGGCACGTGTATGA,-0.15
5,AGTTGCACGTGAGGTA,0.26
6,AGTGTCACGTGACGTC,0.24
7,TGACTCACGTGGAGTG,0.18
8,ATCATCACGTGATATT,0.28
9,AGTGGCACGTGATAAA,0.05
10,GAGTTCACGTGACTTT,0.48
11,TACGTCACGTGTGATT,0.16
12,AGTTTCACGTGGTAGA,0.39
13,TAATTCACGTGTGGGG,0.27
14,AGTCACACGTGGGTAG,-0.13
15,GAGGTCACGTGAGTCG,0.54
16,CGGATCACGTGGGGTC,0.08
17,GGGGACACGTGCAGGT,-0.08
18,TGGAGCACGTGCCTTG,-0.03
19,TGTGGCACGTGGTCGT,-0.23
20,ATGTCCACGTGTGGTG,0.02
21,GAGTCCACGTGGGGGT,-0.05
22,AGGTACACGTGTGGGC,0.26
23,TAGTTCACGTGGTTCA,0.36
24,TTTCGCACGTGGGGCT,-0.09
25,TAATGCACGTGGAGGA,-0.11
26,GCTGGCACGTGGGTGA,-0.19

row,Sequence,relative binding free energy [kcal/mol]
1,CTGTACACGTGGGTTG,-0.21
2,GGGGCCACGTGTGTGT,-0.06
3,GGCAACACGTGGTCGG,0.07
4,ACTTGCACGTGGTATT,-0.09
5,ATTCTCACGTGGAGTA,0.19
6,TAGGTCACGTGGTGGC,0.12
7,GTAATCACGTGCTTTG,0.14
8,CTAGGCACGTGAAAGG,0.2
9,GATTGCACGTGTTGTT,0.12
10,TAGGGCACGTGGATCG,-0.15
11,TACGTCACGTGAGTGG,0.25
12,AGGTACACGTGTGTAG,0.18
13,TTAAGCACGTGTTAGT,-0.06
14,TATGTCACGTGTATCA,0.13
15,TGTTACACGTGTTGCG,0.2
16,TTGGCCACGTGTTGTG,-0.02
17,GGGTACACGTGCTATG,0.03
18,AATCGCACGTGTGTGT,-0.01
19,TAGAGCACGTGGCATG,-0.18
20,ATCGTCACGTGATGTT,0.24
21,GTGGCCACGTGGTGCG,-0.09
22,GATTGCACGTGGGCTT,-0.02
23,CGTAGCACGTGGGGGT,-0.17
24,AACTTCACGTGAGGTA,0.56
25,TTGGGCACGTGACGAG,-0.03
26,TTAGACACGTGGTGAG,0.02

row,Sequence,relative binding free energy [kcal/mol]
1,TTGGTCACGTGGTGTG,0.03
2,TGATCCACGTGGGTTG,-0.16
3,ACCTGCACGTGGGTGT,-0.24
4,TACGGCACGTGGGCAG,-0.21
5,TGCGGCACGTGTGTGA,-0.14
6,GAATTCACGTGGGGCG,0.24
7,GGGGACACGTGTGTAA,0.02
8,GGGTGCACGTGCGTGG,-0.04
9,TCTGTCACGTGATAGG,0.16
10,TGTTGCACGTGGTAGG,0.04
11,TGGGGCACGTGTCCGG,-0.1
12,CATATCACGTGGGTGT,-0.19
13,TAGCGCACGTGGGGCG,-0.23
14,GTCGACACGTGGTAGG,0.08
15,TAGAGCACGTGGTCTG,-0.13
16,GGGTACACGTGTGTGA,0.07
17,TGTTACACGTGTTCAG,0.24
18,ATCGTCACGTGCGTGA,0.13
19,GTTGGCACGTGGGAGA,-0.18
20,TGTTTCACGTGATGTA,0.31
21,ATTGTCACGTGAGCTA,0.29
22,GAAGTCACGTGGGGGA,-0.07
23,GGCGTCACGTGCAAGG,0.2
24,TGTAGCACGTGAAGTA,0.26
25,CTTTACACGTGGTTGT,0.04
26,CTATTCACGTGGGGTG,0.05

row,Sequence,relative binding free energy [kcal/mol]
1,AGTTGCACGTGTCGGA,0.12
2,ATATGCACGTGTATGT,-0.03
3,GTAGGCACGTGGGTTC,-0.21
4,GGGCACACGTGGTGGG,0.04
5,TGGCGCACGTGTAGGG,0.01
6,TCGGACACGTGAGGGA,0.17
7,TGGGTCACGTGTAGGG,0.16
8,TGGTACACGTGTTTGT,0.07
9,AATGGCACGTGTTTTT,0.03
10,TATTACACGTGGGGCA,-0.03
11,CGTTCCACGTGGGGAG,-0.16
12,TGATTCACGTGAAATT,0.36
13,TGAGTCACGTGTGCAG,0.1
14,CGTAGCACGTGGGAGG,-0.2
15,GTTTGCACGTGATTCA,0.02
16,GTGGTCACGTGTGGCT,0.17
17,TTAGGCACGTGGGAAT,0
18,AGTGACACGTGGTGGT,-0.05
19,AGAGGCACGTGATTGA,0.02
20,TCACACACGTGGGGGG,-0.1
21,TGTGACACGTGGAAAG,0.17
22,GGTAGCACGTGGGAGT,-0.16
23,TTAGGCACGTGCCGTT,-0.11
24,TTGGACACGTGATGGT,0.3
25,AACGGCACGTGGATGT,-0.06
26,ATTGGCACGTGGCAAG,-0.28

row,Sequence,relative binding free energy [kcal/mol]
1,CGGACCACGTGGGTGG,-0.09
2,ATGTACACGTGTCGGG,0.1
3,TGAGGCACGTGCAGTA,-0.18
4,TAGAACACGTGAGATG,0.34
5,TGTGGCACGTGGCAGT,-0.27
6,TGGATCACGTGGTTGG,0.22
7,TTGAGCACGTGAAATG,0.35
8,GGATTCACGTGAGTGC,0.54
9,AGTGGCACGTGTGCAG,-0.19
10,ATTTGCACGTGTGATG,0.04
11,GATGACACGTGGTTAA,0.1
12,GCGTGCACGTGGGTGT,-0.1
13,GAGGCCACGTGTTAGG,0.01
14,ATGGGCACGTGACGCG,0.02
15,TGAAACACGTGTTAGG,0.01
16,CATTGCACGTGAGGTC,0.28
17,AGTTTCACGTGAAGTG,0.31
18,AGGTGCACGTGCTTGT,-0.11
19,TTTGGCACGTGGTGGC,-0.17
20,CTTTACACGTGGTGGT,-0.01
21,AGGTGCACGTGACTGT,0.09
22,AGGTCCACGTGAGGCG,0.22
23,TGTAGCACGTGTACTG,-0.18
24,CATGTCACGTGTTGCT,0.1
25,GCTCTCACGTGGTGGT,0.13
26,ATGGGCACGTGGTTAT,-0.08

row,Sequence,relative binding free energy [kcal/mol]
1,GGTTTCACGTGTTAAT,0.3
2,GGAGGCACGTGGGTGA,-0.2
3,TCGAGCACGTGGGGCG,-0.18
4,GGTATCACGTGGAATA,0.36
5,CGTTTCACGTGGTAGC,0.32
6,GGGGACACGTGTGCTT,0.04
7,TATGGCACGTGGTCAA,-0.22
8,AGGTGCACGTGAGAGC,0.14
9,AGGTGCACGTGTGCTT,-0.15
10,GTATTCACGTGGGATT,0.27
11,TGCTGCACGTGGGATG,-0.1
12,CGTGTCACGTGACAGT,0.22
13,GGTATCACGTGGACTG,0.18
14,CTGCGCACGTGATTGG,0.04
15,TAAATCACGTGGTAAG,0.02
16,TTAAGCACGTGTCGTG,-0.14
17,GTTGTCACGTGGATTG,0.17
18,TTTTGCACGTGCGGGA,-0.1
19,GGATTCACGTGACTAG,0.57
20,TGATTCACGTGTTGGT,0.36
21,CGGGGCACGTGTATTG,-0.02
22,GGGCTCACGTGGGCGC,0.22
23,TCGGTCACGTGGTTGG,0.11
24,CCGTTCACGTGGGGGT,0.11
25,GAGTTCACGTGGGTAA,0.25
26,AGGCACACGTGGGTTT,-0.1

row,Sequence,relative binding free energy [kcal/mol]
1,GTATTCACGTGGTCAT,0.19
2,GGCATCACGTGGGTGG,0.06
3,GTTTCCACGTGGAGGT,0.04
4,TTTATCACGTGATTGC,0.43
5,GTATGCACGTGAGATA,0.14
6,TTTTACACGTGATGTA,0.23
7,GCTGTCACGTGATCGG,0.25
8,TGTCGCACGTGATTGG,-0.01
9,GGATACACGTGGTTAG,0.11
10,GGGTTCACGTGGTTGA,0.32
11,TTCTGCACGTGAGGTT,0.29
12,TGTTGCACGTGAATAT,0.38
13,TGGACCACGTGGGGGG,-0.19
14,GAATTCACGTGATGGC,0.51
15,AGAATCACGTGATTGG,0.24
16,TAGCTCACGTGTTAGG,0.21
17,GTGTGCACGTGGAAGG,0.04
18,AATGCCACGTGGGGGG,-0.22
19,AAGGTCACGTGGTGTG,-0.01
20,CAATTCACGTGGTGTG,0.14
21,AGGAACACGTGGGATT,-0.05
22,GCGTACACGTGCGTGG,0
23,ATAGACACGTGTGCTG,0.04
24,AGGCGCACGTGGGGTC,-0.13
25,GTGATCACGTGAGGAA,0.46
26,ATTGTCACGTGGTAAC,0.01

row,Sequence,relative binding free energy [kcal/mol]
1,GGTTGCACGTGTGTAT,0.14
2,GGGCTCACGTGTCTTG,0.39
3,TAGGTCACGTGTTGAG,0.06
4,GAGGACACGTGTAAGG,0.26
5,AATGGCACGTGTCATG,-0.11
6,AAATGCACGTGGATTT,-0.02
7,CTGAGCACGTGATTGT,0.05
8,ACGTGCACGTGTTATG,-0.12
9,GACATCACGTGTTAGT,0.28
10,ACGGGCACGTGTGGTC,-0.05
11,ATTAGCACGTGAAATT,0.17
12,TGTAACACGTGTTTAA,-0.04
13,TAGGGCACGTGGTCTT,-0.19
14,TGGTACACGTGAATCG,0.41
15,TTCGTCACGTGGTGCT,-0.04
16,AAGGGCACGTGCTAGT,-0.18
17,TATATCACGTGTGACT,0.16
18,TGTTTCACGTGCGGCG,0.24
19,TTTTGCACGTGTAACT,0.17
20,TGATACACGTGCGTTG,-0.09
21,GGGTTCACGTGGGTGA,0.24
22,TGCGGCACGTGGGGAG,-0.19
